Publication doi:10.1101/2021.02.18.431813 (bioRxiv, 2021)

B1: neuropilin-1 (receptor)
chain: not shown
B2: Plexin A4 (receptor)
chain: not shown

Target: the molecule itself
Assay: PIE-FCCS

Row | Protein | median fraction correlated (fc) | stoichiometry N
1 | B1 | 0.14 | –
2 | B2 | 0.14 | 2
